From paper PMC10283290, “Expression and characterization of recombinant IL-1Ra in Aspergillus oryzae as a system” (BMC Biotechnology, 2023) come the findings set out here.

The experiment concerns the target T1, Recombinant human IL-1 RI protein (interleukin-1 receptor type 1) (human, UniProt P14778 18-336).
T1 construct: interleukin-1 receptor type 1, human, recombinant; No catalogue number is printed; the bought soluble protein is probably the extracellular domain, with or without a tag or Fc (surmise); In the functional rows this id stands for IL-1R1 on the surface of HEK-Blue IL-1β reporter cells; also called IL-1R1; source: bought: R&D Systems
T1 sequence (looked up): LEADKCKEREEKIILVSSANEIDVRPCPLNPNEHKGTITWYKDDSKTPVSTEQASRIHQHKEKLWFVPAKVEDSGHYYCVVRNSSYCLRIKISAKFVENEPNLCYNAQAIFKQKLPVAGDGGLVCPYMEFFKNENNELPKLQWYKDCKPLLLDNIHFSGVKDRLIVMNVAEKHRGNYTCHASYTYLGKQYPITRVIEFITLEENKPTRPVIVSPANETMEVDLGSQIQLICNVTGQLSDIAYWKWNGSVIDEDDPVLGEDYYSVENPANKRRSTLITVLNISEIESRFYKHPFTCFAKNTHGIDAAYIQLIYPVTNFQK
The experiment in a line: SPR; Biacore T200, CM5 chip; IL-1 RI immobilised by amine coupling to ~50 RU; analytes 0.04-5 nM Anakinra, 4-500 nM Asp. IL-1Ra; HBS-EP+ (0.01 M HEPES pH 7.4, 0.15 M NaCl, 3 mM EDTA, 0.005% P20); 25 °C; multicycle kinetics, 1:1 binding model. The conditions noted are these: both partners purified.

B1: Anakinra (Kineret), E. coli-expressed IL-1Ra (ligand)
chain: not shown
notes: methionine residue added to the amino-terminal side; interleukin-1 receptor antagonist (IL-1Ra), non-glycosylated; Not the E. coli IL-1Ra donated by Dr. Cem Albayrak, which was used only in the stability studies; also called E. coli IL-1Ra (Anakinra); source: expressed in E. coli; Anakinra (Kineret) provided by Prof; Dr. Ahmet Gul (Istanbul University)
The Kd is a measure of binding affinity in units of concentration. As usually defined, the koff is the first-order rate constant of dissociation. As usually defined, the kon is the rate constant with which the complex forms. Consider B1, for which the Kd is 0.0346 nM, the dissociation rate constant (koff) was 0.00014 s⁻¹ and the kon came out at 4.25e+06 M⁻¹ s⁻¹.

B2: Aspergillus oryzae-expressed IL-1Ra (interleukin-1 receptor antagonist) (ligand)
chain: not shown
modifications: N-glycosylated
notes: methionine residue inserted at the N-terminus, similar to Anakinra; also called Asp; IL-1Ra; A. oryzae-expressed IL-1Ra
For B2, the Kd was found to be 2.06 nM, the koff stood at 0.00019 s⁻¹ and the kon was 93000 M⁻¹ s⁻¹.
